The list shows a part of the results. Cleavage of a single-stranded DNA pool by Rep nickase domains was read by sequencing for 1 h at 37 °C with 3 µM enzyme; only the middle of the 90-letter strands is printed. Numbers give uncut DNA relative to the enzyme-free pool, as log2; uncut sequences lie near 0, cut ones below; no hit call is given. The scaling is to total reads; values above 0 arise when much of the pool is cut.
Experiments:
Assay in all cases: uncleaved DNA left, log2 of reads against the no-enzyme library (log2 ratio); higher = less cleavage (more negative = more Rep cleavage of the k-mer); sequences stand for … in CTCGTCCG…ACCGGAGA
[1] = tested on: T1, Rep nickase domain of Muscovy duck circovirus
T1 sequence (Rep 1-111, printed without the tag): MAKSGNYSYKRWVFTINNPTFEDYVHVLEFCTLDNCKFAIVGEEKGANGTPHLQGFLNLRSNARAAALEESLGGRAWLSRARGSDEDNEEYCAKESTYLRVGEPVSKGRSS
Protocol: (§1)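 A pool of 90-nt single-stranded DNAs with seven random bases just before the constant AC of the nick site (name = the seven bases) was cut by 3 µM recombinant His6-SUMO-tagged Rep nickase domain (300 nM DNA, 50 mM HEPES pH 8.0, 50 mM NaCl, 1 mM MnCl2, 1 h, 37 °C, three replicates). Uncut DNA was amplified and sequenced.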

[2] = tested on: T2, Rep nickase domain of banana bunchy top virus
T2 sequence (Rep 1-94, printed without the tag): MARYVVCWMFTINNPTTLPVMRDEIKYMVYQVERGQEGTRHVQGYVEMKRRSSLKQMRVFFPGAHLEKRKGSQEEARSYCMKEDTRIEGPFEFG
Protocol: as §1

[3] = tested on: T3, Rep nickase domain of cabbage leaf curl virus
T3 sequence (Rep 1-116, printed without the tag): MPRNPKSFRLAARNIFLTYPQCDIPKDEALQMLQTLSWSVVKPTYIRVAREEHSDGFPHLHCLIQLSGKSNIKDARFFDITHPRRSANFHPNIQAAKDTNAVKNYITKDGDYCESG
Protocol: as §1

[4] = tested on: T4, Rep nickase domain of chickpea chlorotic dwarf virus
T4 sequence (Rep 1-124, printed without the tag): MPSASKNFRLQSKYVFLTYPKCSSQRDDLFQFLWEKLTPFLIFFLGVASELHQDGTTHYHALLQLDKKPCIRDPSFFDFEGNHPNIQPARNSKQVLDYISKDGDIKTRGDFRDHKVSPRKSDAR
Protocol: as §1

[5] = tested on: T5, Rep nickase domain of faba bean necrotic yellows virus
T5 sequence (Rep 1-98, printed without the tag): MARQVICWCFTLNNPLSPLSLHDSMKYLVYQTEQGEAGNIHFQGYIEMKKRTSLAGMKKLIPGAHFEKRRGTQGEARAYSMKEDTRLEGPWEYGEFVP
Protocol: as §1

[6] = tested on: T6, Rep nickase domain of maize striate mosaic virus
T6 sequence (Rep 1-117, printed without the tag): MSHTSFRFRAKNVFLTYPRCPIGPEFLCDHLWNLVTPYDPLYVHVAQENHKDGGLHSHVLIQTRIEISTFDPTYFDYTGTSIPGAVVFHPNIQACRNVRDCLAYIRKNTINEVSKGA
Protocol: as §1

[7] = tested on: T7, Rep nickase domain of porcine circovirus 2
T7 sequence (Rep 2-116, printed without the tag): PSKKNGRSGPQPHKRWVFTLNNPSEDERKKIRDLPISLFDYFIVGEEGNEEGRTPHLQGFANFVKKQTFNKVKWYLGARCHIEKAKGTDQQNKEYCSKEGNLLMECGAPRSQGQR
Protocol: as §1

[8] = tested on: T8, Rep nickase domain of tomato yellow leaf curl virus
T8 sequence (Rep 1-136, printed without the tag): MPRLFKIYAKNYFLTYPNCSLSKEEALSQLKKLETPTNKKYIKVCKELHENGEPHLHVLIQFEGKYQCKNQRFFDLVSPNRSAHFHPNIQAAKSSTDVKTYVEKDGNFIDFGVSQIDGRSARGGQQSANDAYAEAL
Protocol: as §1

[9] = tested on: T9, Rep nickase domain of wheat dwarf virus
T9 sequence (Rep 1-137, printed without the tag): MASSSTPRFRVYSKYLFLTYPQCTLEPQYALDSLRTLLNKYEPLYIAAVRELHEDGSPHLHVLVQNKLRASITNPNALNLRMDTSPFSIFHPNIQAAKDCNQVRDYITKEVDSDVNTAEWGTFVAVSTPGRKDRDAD
Protocol: as §1

| Sequence | uncleaved DNA left (log2) [1] | uncleaved DNA left (log2) [2] | uncleaved DNA left (log2) [3] | uncleaved DNA left (log2) [4] | uncleaved DNA left (log2) [5] | uncleaved DNA left (log2) [6] | uncleaved DNA left (log2) [7] | uncleaved DNA left (log2) [8] | uncleaved DNA left (log2) [9] |
| --- | --- | --- | --- | --- | --- | --- | --- | --- | --- |
| GCACAGT | 0.0663 | -0.0456 | -0.0294 | 0.123 | 0.00431 | -0.168 | 0.0174 | 0.0498 | 0.0573 |
| CTTTGAC | -0.143 | -0.0822 | -0.217 | -0.528 | -0.0244 | -0.922 | -0.12 | -0.111 | -0.0487 |
| AGATAAA | 0.0434 | 0.014 | 0.0652 | 0.373 | 0.19 | -0.168 | 0.0567 | -0.0614 | 0.0785 |
| CTTAACA | 0.037 | 0.186 | -0.406 | -2.01 | -0.162 | -0.579 | -0.0182 | 0.178 | 0.0961 |
| AGCGCAC | -0.00552 | 0.0163 | 0.075 | 0.356 | -0.079 | 0.922 | 0.0233 | -0.169 | -0.0671 |
| CCCTAGC | 0.112 | 0.119 | -0.0991 | -0.304 | 0.0156 | -1.06 | 0.0622 | 0.0887 | 0.00249 |
| CGCGAAG | -0.0474 | -0.0133 | -0.321 | -0.394 | 0.0689 | -0.656 | 0.143 | -0.0366 | -0.0636 |
| CTATAAT | -3.25 | -0.198 | -2.18 | -2.45 | -0.025 | -0.963 | -3.64 | 0.107 | -0.462 |
| CTCAATG | -0.0177 | -0.102 | -0.661 | -0.679 | -0.021 | -1.24 | 0.0452 | -0.0977 | -0.13 |
| ACGCCCG | 0.14 | 0.104 | -0.716 | -0.405 | 0.0886 | -0.862 | 0.175 | 0.108 | -0.0575 |
| ATTCAGC | -0.011 | 0.019 | -0.397 | -0.664 | 0.095 | -1.06 | 0.192 | 0.0245 | 0.0129 |
| CGGATTC | -0.0983 | -0.0643 | 0.213 | 0.414 | 0.0483 | -0.0247 | -0.00351 | 0.0422 | 0.0778 |
| TGACCCA | 0.0909 | 0.104 | 0.362 | 0.554 | 0.239 | 1.57 | 0.0662 | 0.174 | -0.0722 |
| CCTAAGG | 0.149 | 0.213 | 0.493 | 1.29 | 0.000274 | 1.09 | 0.19 | 0.0732 | 0.0677 |
| ATGCACG | -0.0524 | -0.1 | -0.862 | -0.367 | -0.0722 | -1.27 | 0.0528 | -0.11 | -0.209 |
| CGGACAT | -0.0367 | -0.0701 | 0.834 | 2.02 | -0.0116 | 2.32 | 0.2 | -0.0578 | 0.146 |
| AGTAGCT | 0.127 | -0.0102 | -0.284 | -0.62 | -0.0752 | -0.72 | -3.07 | -0.0235 | -0.0235 |
| AGTGTTG | 0.203 | 0.146 | 0.0984 | 0.568 | -0.00546 | 1.13 | 0.172 | 0.0845 | 0.126 |
| CCTTCAA | -0.00349 | 0.0338 | -0.0455 | -0.413 | 0.00791 | -0.764 | -0.159 | 0.0676 | 0.031 |
| TCAATAG | 0.0677 | -0.0316 | -0.722 | -0.714 | -0.00578 | -1.31 | 0.179 | 0.0461 | 0.0194 |
| CCCCCGA | 0.00482 | -0.0145 | -0.276 | -0.507 | 0.0384 | -0.628 | 0.0222 | 0.00456 | -0.046 |
| CATCTAA | 0.0667 | 0.0714 | -0.0584 | -0.495 | -0.0295 | -0.495 | 0.022 | 0.0406 | 0.0617 |
| GGGCGGC | 0.0739 | -0.0338 | 0.825 | 1.73 | -0.0887 | 2.17 | 0.198 | -0.0318 | 0.0759 |
| CGTGGTG | 0.131 | 0.0125 | -0.489 | -0.243 | 0.0717 | -0.755 | 0.118 | 0.166 | -0.0603 |
| TCCTCGT | 0.0476 | -0.0943 | -0.257 | -0.922 | -0.048 | -0.945 | -0.231 | 0.0227 | -0.0956 |
| GGGCTAC | -0.00314 | 0.0744 | 0.785 | 1.79 | -0.173 | 2.17 | 0.265 | 0.107 | 0.0469 |
| GGTAGCC | 0.169 | 0.194 | 0.576 | 1.18 | 0.0255 | 1.38 | 0.154 | 0.18 | 0.217 |
| AATTCCA | -1.72 | -0.584 | -0.119 | -2.61 | -0.0887 | -0.611 | -2 | -0.0508 | -0.0726 |

Reference: the supplement of paper PMC7826260
